Measured values: a collection of fitness landscapes (doi:10.1016/j.celrep.2020.107928)
Whole data set: some 81,000 sequences, median “one-hybrid fitness for binding parS DNA” near -0.17, cut for the highest 2% near 0.51. Some of the results follow.

B1: Caulobacter ParB omega fusion; a variant is named by its letters at X, in order, B8GW30 (parent)
chain: MESVVVGEPGMSEGRRGLGRGLSALLGEVDAAPAQAPGEQLGGSREAPIEILQRNPDQPRRTFREEDLEDLSNSIREKGVLQPILVRPSPDTAGEYQIVAGERAWRAAQRAGLKTVPIMVRELDDLAVLEIGIIENVQRADLNVLEEALSYKVLMEKFERTQENIAQTIGKSXSHVANXMRLLXLPDEVQSYLVSGELTAXHARAIAAAADPVALAKQIIEGGLSVRETEALARKAPNLSAGKSKGGRPPRVKDTDTQALESDLSSVLGLDVSIDHRGSTGTLTITYATLEQLDDLCNRLTRGI

Variants of: B1
Experiment: one-hybrid fitness for binding parS DNA (scaled: cognate 1, non-cognate 0); higher = stronger binding
Details: with parS DNA site
Procedure, shortened: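 On M9-minus-histidine containing 0.1 mM IPTG and 5 mM 3-AT, E. coli USO cells with a HIS3 reporter, site 19 bp from the promoter, grew 48 hours at 37°C to select Caulobacter ParB libraries randomised at four specificity codons. Plasmids from before and after were Illumina-sequenced, with three replicate libraries pooled and variants under 10 reads left out. Fitness is the log change in variant-to-wild-type read ratio, rescaled against cognate and non-cognate.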

one-hybrid fitness for binding parS DNA, 0.768:
RQDT

one-hybrid fitness for binding parS DNA, 0.879:
RHKG

one-hybrid fitness for binding parS DNA, ≤ 0.2:
TVND
LLKW
PVQG
VHCP
PTQK
EHRT
TCRI
ETHM
PFPT
KEVP
TTMV
RMQP
WALA
PLKS
IAYS
DSSL
VCIS
LMCA
SKAI
AVNV
QKKT
LTDV
KQKS
LKEG
SQHT
AVQV
ERIC
TEHS
TGIV
NTCV
PESR
NASG
AEKL
HNHR
SMPG
MQST
ANTY
TVAQ
HEVT
CYGA
DAGS
AGEI
HCLT
GGGM
VRNK
AHPF
DTSP
TVFV
KKHS
TARK
DTGM
TAMG
PVPE
QWFR
HKLF
EMTS
LVCL
VPGI
VFAC
VLNR
RPQC
VRYG
KRAY
SKAR
EPTC
VLSW
VEWF
LHHT
PYDY
DNSY
WCLS
PSTC
VTNR
QVME
LSPY
FPVR
TSMS
KGGW
VYRM
SDDS
PMQG
AWNN
FILL
INIG
RSHD
WRHM
RKQP
WPMS
KSMG
QGGG
IGHI
RMQV
SNLM
GMEG

one-hybrid fitness for binding parS DNA, 0.882:
RMFT

one-hybrid fitness for binding parS DNA, 0.285:
RSWM
